For 28 compounds, cytotoxicity call and growth inhibition call results are on record in the antibiotic and cytotoxicity screens of Wong et al. (2023).

Molecules are shown by their SMILES. Some of the results follow.

The test system of assay [1] is HSkMC (human skeletal muscle cells). Put plainly: cytotoxicity call (relative viability < 0.9). The settings on record: 10 µM.
The test system of assay [2] is HepG2. The assay can be described thus: cytotoxicity call (relative viability < 0.9). The settings on record: 10 µM.
For assay [3], the system named is S. aureus RN4220. Put plainly: growth inhibition call (relative growth <= 0.2). The settings on record: 50 µM.

With `COc1cc(CNC(=O)CCCCC=CC(C)C)ccc1O`, the cytotoxicity call in assay [1] and in assay [2] was “inactive” throughout. Also, the growth inhibition call in assay [3] was “inactive”.
As for `C[C@@H]1CN([C@H](C)CO)C(=O)c2cc(NC(=O)CCN3CCOCC3)ccc2O[C@@H]1CN(C)C(=O)Nc1ccccc1`, the cytotoxicity call in assay [1] and in assay [2] was “inactive” in each case. Besides, in assay [3], the growth inhibition call is “inactive”.
`OCC1CCNCC1`: the cytotoxicity call in assay [1] and in assay [2] was “inactive” each time. Further, the growth inhibition call in assay [3] is “inactive”.
Take `Cc1noc(C)c1NC(=O)N(C)C[C@H]1Oc2ccc(NS(=O)(=O)c3ccccc3)cc2CC(=O)N([C@@H](C)CO)C[C@H]1C`: the cytotoxicity call in assay [1] and in assay [2] was “inactive” throughout. The growth inhibition call in assay [3] is “inactive”.
As to `COc1ccc(NC(=O)N(C)C[C@H]2Oc3ccc(NS(=O)(=O)c4cn(C)cn4)cc3C(=O)N([C@@H](C)CO)C[C@@H]2C)cc1`, the cytotoxicity call in assay [1] and in assay [2] was “inactive” each time. Also, the growth inhibition call in assay [3] was “inactive”.
Take `COc1ccc(CNC(=O)C[C@H]2C[C@H]3c4cc(NC(=O)NC5CCCC5)ccc4O[C@H]3[C@@H](CO)O2)cc1`: the cytotoxicity call in assay [1] and in assay [2] was “inactive” throughout. In addition, the growth inhibition call in assay [3] is “inactive”.
As to `C[C@@H]1CN([C@H](C)CO)C(=O)CCCn2nncc2CO[C@@H]1CN(C)C(=O)Nc1cccc(C(F)(F)F)c1`, the cytotoxicity call in assay [1] and in assay [2] was “inactive” in each case. Further, the growth inhibition call in assay [3] is “active”.
For the compound `CC(C)(O)C#Cc1ccc([C@H]2[C@@H](CO)N3CCCCN(S(C)(=O)=O)C[C@@H]23)cc1`, the cytotoxicity call in assay [1] and in assay [2] was “inactive” throughout. Moreover, the growth inhibition call in assay [3] is “inactive”.
Regarding `CO[C@H]1CN(C)C(=O)c2ccc(NS(=O)(=O)c3cn(C)cn3)cc2OC[C@@H](C)N(Cc2cccc(F)c2)C[C@H]1C`, the cytotoxicity call in assay [1] and in assay [2] was “inactive” throughout. Besides, the growth inhibition call in assay [3] is “inactive”.
For the compound `CCS(=O)(=O)Nc1ccc2c(c1)/C(=C(/Nc1ccc(CN3CCCCC3)cc1)c1ccccc1)C(=O)N2`, the cytotoxicity call in assay [1] and in assay [2] was “active” in each case. Further, the growth inhibition call in assay [3] is “inactive”.
In the case of `Cc1ccc(S(=O)(=O)Nc2ccc3c(c2)C(=O)N([C@@H](C)CO)C[C@H](C)[C@@H](CN(C)S(=O)(=O)c2cccs2)O3)cc1`, the cytotoxicity call in assay [1] and in assay [2] was “inactive” each time. The growth inhibition call in assay [3] was “inactive”.
For `C[C@H](CO)N1C[C@H](C)[C@H](CN(C)S(=O)(=O)c2ccccc2)Oc2ccc(NS(=O)(=O)c3cccs3)cc2CC1=O`, the cytotoxicity call in assay [1] and in assay [2] was “inactive” throughout. Also, the growth inhibition call in assay [3] was “inactive”.
With `COc1ccc(S(=O)(=O)N(C)C[C@@H]2Oc3ccc(NS(=O)(=O)c4cccs4)cc3CC(=O)N([C@@H](C)CO)C[C@H]2C)cc1`, the cytotoxicity call in assay [1] and in assay [2] was “inactive” throughout. The growth inhibition call in assay [3] was “inactive”.
As for `COCCn1cc(N)cn1`, the cytotoxicity call in assay [1] and in assay [2] was “inactive” throughout. In addition, the growth inhibition call in assay [3] is “inactive”.
On to `C[C@@H]1CN([C@@H](C)CO)C(=O)Cc2cc(NC(=O)Nc3cccc4ccccc34)ccc2O[C@H]1CN(C)S(=O)(=O)c1cccs1`, for which the cytotoxicity call in assay [1] and in assay [2] was “inactive” in each case. Further, the growth inhibition call in assay [3] was “inactive”.
In the case of `COc1ccc(NC(=O)Nc2cccc3c2O[C@@H](CN(C)S(C)(=O)=O)[C@@H](C)CN([C@H](C)CO)C3=O)cc1`, the cytotoxicity call in assay [1] and in assay [2] was “inactive” throughout. For the same compound, in assay [3], the growth inhibition call is “inactive”.
In the case of `C[C@H](CO)N1C[C@H](C)[C@@H](CN(C)Cc2ccc(C(F)(F)F)cc2)Oc2ccc(NS(=O)(=O)c3ccc(Cl)cc3)cc2C1=O`, the cytotoxicity call in assay [1] and in assay [2] was “active” throughout. In addition, in assay [3], the growth inhibition call was “inactive”.
With `Cc1ccc(S(=O)(=O)N(C)C[C@H]2Oc3c(NS(=O)(=O)c4c(C)noc4C)cccc3C(=O)N([C@@H](C)CO)C[C@H]2C)cc1`, the cytotoxicity call in assay [1] and in assay [2] was “inactive” each time. Besides, the growth inhibition call in assay [3] is “inactive”.
Regarding `C[C@H]1CN([C@@H](C)CO)C(=O)c2cc(NC(=O)Cc3cn(C)c4ccccc34)ccc2O[C@@H]1CN(C)Cc1ccc(-c2ccccc2)cc1`, the cytotoxicity call in assay [1] was “inactive”. Also, the cytotoxicity call in assay [2] is “active”. Besides, the growth inhibition call in assay [3] is “inactive”.
For the compound `CCCCCCCCCCCCCCCC(=O)OCC(O)C1OC(=O)C(O)=C1O` (centres undefined), the cytotoxicity call in assay [1] and in assay [2] was “inactive” each time. Besides, the growth inhibition call in assay [3] is “inactive”.
For `C[C@@H]1CCCCO[C@@H](CN(C)CC2CCCCC2)[C@@H](C)CN([C@@H](C)CO)C(=O)c2cc(NS(=O)(=O)c3cccs3)ccc2O1`, the cytotoxicity call in assay [1] and in assay [2] was “inactive” in each case. Further, in assay [3], the growth inhibition call was “inactive”.
For `C[C@@H]1CN([C@@H](C)CO)C(=O)Cc2cc(NC(=O)c3ccncc3)ccc2O[C@@H]1CN(C)S(=O)(=O)c1ccc(Cl)cc1`, the cytotoxicity call in assay [1] and in assay [2] was “inactive” throughout. In addition, the growth inhibition call in assay [3] is “inactive”.
On to `O=C(C[C@@H]1CC[C@@H](NC(=O)CN2CCOCC2)[C@@H](CO)O1)NC1CCC1`, for which the cytotoxicity call in assay [1] and in assay [2] was “inactive” each time. The growth inhibition call in assay [3] is “inactive”.
Consider `Cc1noc(C)c1NC(=O)Nc1ccc2c(c1)C(=O)N([C@H](C)CO)C[C@@H](C)[C@@H](CN(C)CC1CCCCC1)OCCCC[C@H](C)O2`, for which the cytotoxicity call in assay [1] and in assay [2] was “inactive” each time. For the same compound, the growth inhibition call in assay [3] was “inactive”.
As for `COc1cccc(CNC(=O)c2cc3c(c(-c4cccc(-c5ccncc5)c4)n2)[C@H](CCO)N([S@@](=O)C(C)(C)C)C3)c1`, the cytotoxicity call in assay [1] and in assay [2] was “inactive” each time. Also, the growth inhibition call in assay [3] is “inactive”.
With `COc1ccc2c3c(n(c2c1)C)[C@H](CO)N(CC1CC1)C[C@]13CCN(CC1)S(=O)(=O)c1cn(cn1)C`, the cytotoxicity call in assay [1] and in assay [2] was “inactive” throughout. In addition, the growth inhibition call in assay [3] was “inactive”.
For the compound `C[C@@H]1CN([C@@H](C)CO)C(=O)c2cc(NC(=O)Cc3ccccc3)ccc2O[C@H]1CN(C)C(=O)Nc1ccc(C(F)(F)F)cc1`, the cytotoxicity call in assay [1] and in assay [2] was “inactive” each time. Further, the growth inhibition call in assay [3] is “inactive”.
On to `COc1ccc(NC(=O)N(C)C[C@@H]2Oc3ccc(NC(=O)Nc4cccc5ccccc45)cc3C(=O)N([C@@H](C)CO)C[C@@H]2C)cc1`, for which the cytotoxicity call in assay [1] and in assay [2] was “inactive” throughout. Also, the growth inhibition call in assay [3] is “inactive”.
